This is an account of results in paper PMC6919601, “Identification of Plasmodium dipeptidyl aminopeptidase allosteric inhibitors by high throughput screening” (PLoS ONE, 2019).

SMILES strings stand for the structures. In all, about 110,000 compounds went through this assay and about 230 (0.21%) showed an effect of 50% or more. This is one part of the list.
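Further: 30 min substrate incubation versus DMSO and 10 µM JCP410 controls.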

The target of this experiment is DPAP1 (Plasmodium falciparum, UniProt Q8IIJ9). The experiment can be described thus: primary screen, percent inhibition; read by cleavage of a fluorogenic dipeptide substrate; higher = more effect of the substance. Set-up: species or system P. falciparum D10 trophozoite lysates; single well.
DPAP1, sequence (Q8IIJ9 whole entry, looked up): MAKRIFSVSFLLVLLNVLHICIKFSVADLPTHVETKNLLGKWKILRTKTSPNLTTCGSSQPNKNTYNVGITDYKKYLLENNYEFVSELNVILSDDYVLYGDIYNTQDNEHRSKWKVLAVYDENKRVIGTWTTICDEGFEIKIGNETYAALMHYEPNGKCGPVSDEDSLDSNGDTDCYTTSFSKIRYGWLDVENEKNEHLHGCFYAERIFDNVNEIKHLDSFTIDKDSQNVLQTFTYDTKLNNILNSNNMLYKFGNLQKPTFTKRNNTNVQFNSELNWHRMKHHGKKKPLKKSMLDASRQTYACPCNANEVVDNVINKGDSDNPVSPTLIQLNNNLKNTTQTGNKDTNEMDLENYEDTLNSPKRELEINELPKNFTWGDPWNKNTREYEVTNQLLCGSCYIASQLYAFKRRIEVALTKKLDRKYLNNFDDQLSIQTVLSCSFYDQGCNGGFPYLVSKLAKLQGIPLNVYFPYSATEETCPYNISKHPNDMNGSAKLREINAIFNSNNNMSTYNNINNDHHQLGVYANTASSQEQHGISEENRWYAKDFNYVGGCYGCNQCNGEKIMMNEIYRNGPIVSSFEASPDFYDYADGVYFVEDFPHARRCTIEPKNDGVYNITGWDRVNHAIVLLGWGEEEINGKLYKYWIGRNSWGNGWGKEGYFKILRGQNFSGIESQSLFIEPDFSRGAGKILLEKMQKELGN
On to `CCc1nonc1NC(=O)c1ccc(C)cc1`, for which the “% Inhibition @ 10 uM” value was 0.00706%.
Under `CCCCCCCOc1ccc(C2(C)NC(=O)NC2=O)cc1` (stereo not drawn) stands 3.96%; under `O=C(NCCc1c[nH]c2ccccc12)c1cnc(N2CCCC2)nc1`, 0.44%.
To `NC(=O)c1cc(S(=O)(=O)NCCC2=CCCCC2)cs1` belongs 2.75%.
To `N#CCNC(=O)[C@H](CC1CCCCC1)NC(=O)c1cccc(O)c1` belongs -5.21%; to `CCN1CCN(c2oc(/C=C/c3ccc(F)cc3)nc2C#N)CC1`, -0.808%; to `O=C(C1CC1)N1CCN(c2ncccn2)CC1`, 2.32%.
Consider `COc1ccccc1C1c2[nH]c3ccccc3c2CCN1C(C)=O` (stereo not drawn), for which the “% Inhibition @ 10 uM” value is -2.21%.
To `CN(C)CCN(C(=O)c1ccc(Cl)s1)c1nc2ccc(F)cc2s1` belongs -6.46%; to `O=C(Nc1ccc(Cc2ccncc2)cc1)C1CCC(N2C(=O)C3C4C=CC(C5CC45)C3C2=O)CC1` (stereo not drawn), -4.02%; to `COc1ccccc1/C=C1\SC(N2CC(C)OC(C)C2)=NC1=O` (stereo not drawn), 9.19%.
To `CCOc1cc(/C=C2\SC(=O)N(CC)C2=O)ccc1OCC(=O)O` belongs 2.44%.
Under `COc1cc2c(cc1OC)C(c1ccccc1Br)CC(=O)N2` (stereo not drawn) stands -10.8%.
`COc1cccc(C2C3=C(O)CCCC3=NC(C)=C2C(=O)Nc2ccccc2OC)c1` (stereo not drawn): the “% Inhibition @ 10 uM” value was -0.941%.
Under `COc1cc(C(c2c(O)n[nH]c2C)c2c(O)n[nH]c2C)cc(Br)c1O` stands -7.1%.
To `CCCS(=O)(=O)N1CCCC(C(=O)NCCN(C)Cc2ccccc2)C1` (stereo not drawn) belongs 4.81%; to `CC1CCC2(CC1)SCC(=O)N2c1cccc(C(F)(F)F)c1` (stereo not drawn), -3.45%.
To `COc1ccc(C(=O)CSc2nnnn2Cc2ccccc2)cc1OC` belongs 1.65%.
In the case of `Cc1ccccc1C(=O)Nc1cccc(NC(=O)COc2ccccc2Cl)c1`, the “% Inhibition @ 10 uM” value came to 2.69%.
Under `CCOc1ccc(C(=O)Nc2cccc(C)c2C)cc1` stands -0.865%; under `c1nc(NCCN2CCOCC2)c2c3c(sc2n1)CCCC3`, -4.51%.
To `Cc1ccc(C(=O)Nc2ccc(C)c(C)c2)s1` belongs 3.97%; to `C=CCN1C(=S)N[C@@H]2CS(=O)(=O)C[C@@H]21`, -0.85%.
Under `CCOC(=O)C1CCCN(Cc2ccc(C(C)C)cc2)C1` (stereo not drawn) stands -0.0404%; under `COc1ccccc1-c1cc(C(=O)NCCN2CCOCC2)c2ccccc2n1`, -1.95%.
As for `COc1ccc(CC(=O)NCCSc2c[nH]c3ccccc23)cc1OC`, the “% Inhibition @ 10 uM” value came out at 1.23%.
With `O=C(CN1C(=O)c2cccc3cccc(c23)C1=O)N1CCOCC1`, the “% Inhibition @ 10 uM” value is reported as 5.64%.
To `O=C(O)CCC(=O)Nc1cccc2ccccc12` belongs -3.65%; to `COc1cccc(CN(C(=O)c2cccc(OC)c2)C2CCS(=O)(=O)C2)c1` (stereo not drawn), -6.85%; to `O=C(COc1ccc(Cl)cc1)N(Cc1ccccc1)c1ccccn1`, 3.62%.
To `Cc1sc(NC(=O)C2CCCCC2C(=O)O)c(C(N)=O)c1-c1ccccc1` (stereo not drawn) belongs 18.3%; to `COC(=O)c1cc(S(=O)(=O)NCCCN(C)Cc2ccccc2)c[nH]1`, 1.73%.
Under `Cc1cc(-c2ccccc2)c2c3c(c(-c4ccccc4)n2n1)c(=O)n(C)c(=O)n3C` stands 3.15%; under `CC1=Nc2ncnn2C(c2cccc(O)c2)/C1=C(\O)OC(C)C` (stereo not drawn), -1.17%; under `Cc1cccc(C(=O)Nc2ccc(CN3CCOCC3)cc2)c1`, 0.709%.
For `N#CCCn1c2ccccc2c2ccccc21`, the “% Inhibition @ 10 uM” value is -0.546%.
To `COc1cc(C(=O)NCCOc2ccccc2F)cc(OC)c1OC` belongs 0.503%.
To `OC(CCCN1CCCCC1)(c1ccccc1)c1ccccc1` belongs 2.09%; to `Cc1ccc(S(=O)(=O)N(CC(=O)N2CCN(c3ccccc3F)CC2)Cc2ccc(F)cc2)cc1`, -0.545%.
Under `CCCCCCc1ccc(-c2ncc(-c3ccc(Br)cc3)cn2)cc1` stands 1.35%; under `CN(Cc1cn2c3ccccc3n(C)c2n1)C12CC3CC(CC(C3)C1)C2`, -1.38%.
Regarding `CCCCNS(=O)(=O)c1ccc(S(=O)(=O)N2CCN(CCC#N)CC2)cc1`, the “% Inhibition @ 10 uM” value is listed as -5.51%.
In the case of `Cc1ccc(CNc2cnn(C34CC5CC(CC(C5)C3C(=O)O)C4)c(=O)c2Cl)cc1` (stereo not drawn), the “% Inhibition @ 10 uM” value was determined as 8.73%.
As to `Cc1ccc(N2C(=O)C3C4C=CC(CNC(=O)OCc5ccccc5)(O4)C3C2=O)cc1` (stereo not drawn), the “% Inhibition @ 10 uM” value is -5.47%.
Under `CCOC(=O)C1CCN(S(=O)(=O)c2ccc(F)cc2)CC1` stands -0.833%; under `CCC(=O)N1CCN(c2cc(N3CCOCC3)c(F)cc2[N+](=O)[O-])CC1`, -6.25%; under `Cc1ccccc1Cn1c(SCc2ccc(C(=O)NCC3CCCO3)cc2)nc2ccncc21` (stereo not drawn), -8.96%.
Under `CCOc1ccc(NC(=O)CN(c2cccc(Br)c2)S(C)(=O)=O)cc1` stands 0.431%; under `O=C(Nc1ccc2c(c1)OCO2)c1cc2n(n1)C(C(F)(F)F)CC(c1ccccc1)N2` (stereo not drawn), 4.67%; under `CCN(CCN(C)C)Cc1ccoc1`, 0.265%.
To `CCc1cccc(C)c1NS(=O)(=O)Cc1ccccc1` belongs 1.43%.
